# Laboratory results taken from the supplement of paper PMC12230231.
# ± gives the standard deviation of the averaged measurements. Restriction of a single-cycle SIVsab GFP reporter by TRIM5α v1-loop variants in CRFK cells. Human variants: read share among cells still uninfected after two challenges over input, higher = gained restriction. Rhesus variants: share among infected cells over input, higher = lost restriction. Reporter dose not given per row. No active / inactive call per row; the paper calls a change when both replicates lie above its controls (mean + 2 SD of stop or wild-type variants, or the top frameshift score). Residues outside the varied loop are taken from Swiss-Prot. The paper reads the human single-substitution scores as noise; they and the rhesus combinations repeat poorly (rank correlation 0.3 to 0.4), indel scores repeat only for the top variants, rhesus substitutions well (0.9).
# System: SIVsab (simian immunodeficiency virus of sabaeus monkeys), single-cycle GFP reporter, in CRFK cells
# Assay: enrichment among uninfected cells over input (fold); higher = stronger restriction
# Details: library: human / rhesus combinations
# Description: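 Pools of CRFK cells expressing variants of the TRIM5α v1 loop were challenged with the single-cycle reporter, sorted by GFP and sequenced; mean of two replicates.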
row,Sequence,enrichment
1,"MASGILVNVKEEVTCPICLELLTQPLSLDCGHSFCQACLTANHKKSMLDKGESSCPVCRISYQPENIRPNRHVANIVEKLREVKLSPEGQKVDHCARHGEKLLLFCQEDGKVICWLCERSQEHRGHHTFLTEEVAREYQVKLQAALEMLRQKQQEAEELEADIREEKASWKTQIQYDKTNVLADFEQLRDILDWEESNELQNLEKEEEDILKSLTNSETEMVQQTQSLRELISDLEHRLQGSVMELLQGVDGVIKRTENVTLKKPETFPKNQRRVFRAPDLKGMLEVFRELTDVRRYWVDVTVAPNNISCAVISEDKRQVSSPKPQIIYGARGTRYPSFTNFNYCTGILGSQSITSGKHYWEVDVSKKTAWILGVCAGFQPDAMCNIEKNENYQPKYGYWVIGLEEGVKCSAFQDSSFHTPSVPFIVPLSVIICPDRVGVFLDYEACTVSFFNITNHGFLIYKFSHCSFSQPVFPYLNPRKCGVPMTLCSPSS [human TRIM5α, 330-340 = GARGTRYPSFT]",0.368 ± 0.51
2,"MASGILVNVKEEVTCPICLELLTQPLSLDCGHSFCQACLTANHKKSMLDKGESSCPVCRISYQPENIRPNRHVANIVEKLREVKLSPEGQKVDHCARHGEKLLLFCQEDGKVICWLCERSQEHRGHHTFLTEEVAREYQVKLQAALEMLRQKQQEAEELEADIREEKASWKTQIQYDKTNVLADFEQLRDILDWEESNELQNLEKEEEDILKSLTNSETEMVQQTQSLRELISDLEHRLQGSVMELLQGVDGVIKRTENVTLKKPETFPKNQRRVFRAPDLKGMLEVFRELTDVRRYWVDVTVAPNNISCAVISEDKRQVSSPKPQIIYGARGTRFQSLTNFNYCTGILGSQSITSGKHYWEVDVSKKTAWILGVCAGFQPDAMCNIEKNENYQPKYGYWVIGLEEGVKCSAFQDSSFHTPSVPFIVPLSVIICPDRVGVFLDYEACTVSFFNITNHGFLIYKFSHCSFSQPVFPYLNPRKCGVPMTLCSPSS [human TRIM5α, 330-340 = GARGTRFQSLT]",0.0031 ± 0.0001
3,"MASGILVNVKEEVTCPICLELLTQPLSLDCGHSFCQACLTANHKKSMLDKGESSCPVCRISYQPENIRPNRHVANIVEKLREVKLSPEGQKVDHCARHGEKLLLFCQEDGKVICWLCERSQEHRGHHTFLTEEVAREYQVKLQAALEMLRQKQQEAEELEADIREEKASWKTQIQYDKTNVLADFEQLRDILDWEESNELQNLEKEEEDILKSLTNSETEMVQQTQSLRELISDLEHRLQGSVMELLQGVDGVIKRTENVTLKKPETFPKNQRRVFRAPDLKGMLEVFRELTDVRRYWVDVTVAPNNISCAVISEDKRQVSSPKPQIIYGARGTLFTFQSFVNFNYCTGILGSQSITSGKHYWEVDVSKKTAWILGVCAGFQPDAMCNIEKNENYQPKYGYWVIGLEEGVKCSAFQDSSFHTPSVPFIVPLSVIICPDRVGVFLDYEACTVSFFNITNHGFLIYKFSHCSFSQPVFPYLNPRKCGVPMTLCSPSS [human TRIM5α, 330-340 = GARGTLFTFQSFV]",0.282 ± 0.25
4,"MASGILVNVKEEVTCPICLELLTQPLSLDCGHSFCQACLTANHKKSMLDKGESSCPVCRISYQPENIRPNRHVANIVEKLREVKLSPEGQKVDHCARHGEKLLLFCQEDGKVICWLCERSQEHRGHHTFLTEEVAREYQVKLQAALEMLRQKQQEAEELEADIREEKASWKTQIQYDKTNVLADFEQLRDILDWEESNELQNLEKEEEDILKSLTNSETEMVQQTQSLRELISDLEHRLQGSVMELLQGVDGVIKRTENVTLKKPETFPKNQRRVFRAPDLKGMLEVFRELTDVRRYWVDVTVAPNNISCAVISEDKRQVSSPKPQIIYGARGTRFTFQSFVNFNYCTGILGSQSITSGKHYWEVDVSKKTAWILGVCAGFQPDAMCNIEKNENYQPKYGYWVIGLEEGVKCSAFQDSSFHTPSVPFIVPLSVIICPDRVGVFLDYEACTVSFFNITNHGFLIYKFSHCSFSQPVFPYLNPRKCGVPMTLCSPSS [human TRIM5α, 330-340 = GARGTRFTFQSFV]",0.414 ± 0.027
5,"MASGILVNVKEEVTCPICLELLTQPLSLDCGHSFCQACLTANHKKSMLDKGESSCPVCRISYQPENIRPNRHVANIVEKLREVKLSPEGQKVDHCARHGEKLLLFCQEDGKVICWLCERSQEHRGHHTFLTEEVAREYQVKLQAALEMLRQKQQEAEELEADIREEKASWKTQIQYDKTNVLADFEQLRDILDWEESNELQNLEKEEEDILKSLTNSETEMVQQTQSLRELISDLEHRLQGSVMELLQGVDGVIKRTENVTLKKPETFPKNQRRVFRAPDLKGMLEVFRELTDVRRYWVDVTVAPNNISCAVISEDKRQVSSPKPQIIYQAPGTRYTFPSLTNFNYCTGILGSQSITSGKHYWEVDVSKKTAWILGVCAGFQPDAMCNIEKNENYQPKYGYWVIGLEEGVKCSAFQDSSFHTPSVPFIVPLSVIICPDRVGVFLDYEACTVSFFNITNHGFLIYKFSHCSFSQPVFPYLNPRKCGVPMTLCSPSS [human TRIM5α, 330-340 = QAPGTRYTFPSLT]",0.254 ± 0.14
6,"MASGILVNVKEEVTCPICLELLTQPLSLDCGHSFCQACLTANHKKSMLDKGESSCPVCRISYQPENIRPNRHVANIVEKLREVKLSPEGQKVDHCARHGEKLLLFCQEDGKVICWLCERSQEHRGHHTFLTEEVAREYQVKLQAALEMLRQKQQEAEELEADIREEKASWKTQIQYDKTNVLADFEQLRDILDWEESNELQNLEKEEEDILKSLTNSETEMVQQTQSLRELISDLEHRLQGSVMELLQGVDGVIKRTENVTLKKPETFPKNQRRVFRAPDLKGMLEVFRELTDVRRYWVDVTVAPNNISCAVISEDKRQVSSPKPQIIYGARGTLYTFQTFVNFNYCTGILGSQSITSGKHYWEVDVSKKTAWILGVCAGFQPDAMCNIEKNENYQPKYGYWVIGLEEGVKCSAFQDSSFHTPSVPFIVPLSVIICPDRVGVFLDYEACTVSFFNITNHGFLIYKFSHCSFSQPVFPYLNPRKCGVPMTLCSPSS [human TRIM5α, 330-340 = GARGTLYTFQTFV]",0.0343 ± 0.048
7,"MASGILVNVKEEVTCPICLELLTQPLSLDCGHSFCQACLTANHKKSMLDKGESSCPVCRISYQPENIRPNRHVANIVEKLREVKLSPEGQKVDHCARHGEKLLLFCQEDGKVICWLCERSQEHRGHHTFLTEEVAREYQVKLQAALEMLRQKQQEAEELEADIREEKASWKTQIQYDKTNVLADFEQLRDILDWEESNELQNLEKEEEDILKSLTNSETEMVQQTQSLRELISDLEHRLQGSVMELLQGVDGVIKRTENVTLKKPETFPKNQRRVFRAPDLKGMLEVFRELTDVRRYWVDVTVAPNNISCAVISEDKRQVSSPKPQIIYGARGTLYTFQSFTNFNYCTGILGSQSITSGKHYWEVDVSKKTAWILGVCAGFQPDAMCNIEKNENYQPKYGYWVIGLEEGVKCSAFQDSSFHTPSVPFIVPLSVIICPDRVGVFLDYEACTVSFFNITNHGFLIYKFSHCSFSQPVFPYLNPRKCGVPMTLCSPSS [human TRIM5α, 330-340 = GARGTLYTFQSFT]",0.138 ± 0.026

# Same assay, conditions: library: insertions and deletions
row,Sequence,enrichment
1,"MASGILVNVKEEVTCPICLELLTQPLSLDCGHSFCQACLTANHKKSMLDKGESSCPVCRISYQPENIRPNRHVANIVEKLREVKLSPEGQKVDHCARHGEKLLLFCQEDGKVICWLCERSQEHRGHHTFLTEEVAREYQVKLQAALEMLRQKQQEAEELEADIREEKASWKTQIQYDKTNVLADFEQLRDILDWEESNELQNLEKEEEDILKSLTNSETEMVQQTQSLRELISDLEHRLQGSVMELLQGVDGVIKRTENVTLKKPETFPKNQRRVFRAPDLKGMLEVFRELTDVRRYWVDVTVAPNNISCAVISEDKRQVSSPKPQIIYGARGTRYQTFVRYQTFVNFNYCTGILGSQSITSGKHYWEVDVSKKTAWILGVCAGFQPDAMCNIEKNENYQPKYGYWVIGLEEGVKCSAFQDSSFHTPSVPFIVPLSVIICPDRVGVFLDYEACTVSFFNITNHGFLIYKFSHCSFSQPVFPYLNPRKCGVPMTLCSPSS [human TRIM5α, 6-codon duplication at 335]",0.176 ± 0.16
2,"MASGILVNVKEEVTCPICLELLTQPLSLDCGHSFCQACLTANHKKSMLDKGESSCPVCRISYQPENIRPNRHVANIVEKLREVKLSPEGQKVDHCARHGEKLLLFCQEDGKVICWLCERSQEHRGHHTFLTEEVAREYQVKLQAALEMLRQKQQEAEELEADIREEKASWKTQIQYDKTNVLADFEQLRDILDWEESNELQNLEKEEEDILKSLTNSETEMVQQTQSLRELISDLEHRLQGSVMELLQGVDGVIKRTENVTLKKPETFPKNQRRVFRAPDLKGMLEVFRELTDVRRYWVDVTVAPNNISCAVISEDKRQVSSPGARGTRYQTFVNFNYCTGILGSQSITSGKHYWEVDVSKKTAWILGVCAGFQPDAMCNIEKNENYQPKYGYWVIGLEEGVKCSAFQDSSFHTPSVPFIVPLSVIICPDRVGVFLDYEACTVSFFNITNHGFLIYKFSHCSFSQPVFPYLNPRKCGVPMTLCSPSS [human TRIM5α, 6-codon deletion at 324]",1.23 ± 0.25
3,"MASGILVNVKEEVTCPICLELLTQPLSLDCGHSFCQACLTANHKKSMLDKGESSCPVCRISYQPENIRPNRHVANIVEKLREVKLSPEGQKVDHCARHGEKLLLFCQEDGKVICWLCERSQEHRGHHTFLTEEVAREYQVKLQAALEMLRQKQQEAEELEADIREEKASWKTQIQYDKTNVLADFEQLRDILDWEESNELQNLEKEEEDILKSLTNSETEMVQQTQSLRELISDLEHRLQGSVMELLQGVDGVIKRTENVTLKKPETFPKNQRRVFRAPDLKGMLEVFRELTDVRRYWVDVTVAPNNISCAVISEDKRQVSSPKPQYGARGTRYQTFVNFNYCTGILGSQSITSGKHYWEVDVSKKTAWILGVCAGFQPDAMCNIEKNENYQPKYGYWVIGLEEGVKCSAFQDSSFHTPSVPFIVPLSVIICPDRVGVFLDYEACTVSFFNITNHGFLIYKFSHCSFSQPVFPYLNPRKCGVPMTLCSPSS [human TRIM5α, 2-codon deletion at 327]",1.07 ± 1.1
4,"MASGILVNVKEEVTCPICLELLTQPLSLDCGHSFCQACLTANHKKSMLDKGESSCPVCRISYQPENIRPNRHVANIVEKLREVKLSPEGQKVDHCARHGEKLLLFCQEDGKVICWLCERSQEHRGHHTFLTEEVAREYQVKLQAALEMLRQKQQEAEELEADIREEKASWKTQIQYDKTNVLADFEQLRDILDWEESNELQNLEKEEEDILKSLTNSETEMVQQTQSLRELISDLEHRLQGSVMELLQGVDGVIKRTENVTLKKPETFPKNQRRVFRAPDLKGMLEVFRELTDVRRYWVDVTVAPNNISCAVISEDKRQVSSPKPQIIYGARGTRYQTFVNFNYCTGNFNYCTGILGSQSITSGKHYWEVDVSKKTAWILGVCAGFQPDAMCNIEKNENYQPKYGYWVIGLEEGVKCSAFQDSSFHTPSVPFIVPLSVIICPDRVGVFLDYEACTVSFFNITNHGFLIYKFSHCSFSQPVFPYLNPRKCGVPMTLCSPSS [human TRIM5α, 7-codon duplication at 341]",0.301 ± 0.15
5,"MASGILVNVKEEVTCPICLELLTQPLSLDCGHSFCQACLTANHKKSMLDKGESSCPVCRISYQPENIRPNRHVANIVEKLREVKLSPEGQKVDHCARHGEKLLLFCQEDGKVICWLCERSQEHRGHHTFLTEEVAREYQVKLQAALEMLRQKQQEAEELEADIREEKASWKTQIQYDKTNVLADFEQLRDILDWEESNELQNLEKEEEDILKSLTNSETEMVQQTQSLRELISDLEHRLQGSVMELLQGVDGVIKRTENVTLKKPETFPKNQRRVFRAPDLKGMLEVFRELTDVRRYWVDVTVAPNNISCAVISEDKRQVSSPKPQIIYGARGARGTRYQTFVNFNYCTGILGSQSITSGKHYWEVDVSKKTAWILGVCAGFQPDAMCNIEKNENYQPKYGYWVIGLEEGVKCSAFQDSSFHTPSVPFIVPLSVIICPDRVGVFLDYEACTVSFFNITNHGFLIYKFSHCSFSQPVFPYLNPRKCGVPMTLCSPSS [human TRIM5α, 3-codon duplication at 330]",0.92 ± 0.098
